# Results taken from the supplement of paper PMC8728848.
# The other results are listed elsewhere or left out.
# B1: PX14367B-bvu-516-23-516 (Bacteroides vulgatus) (protein)
# chain: LDTIPTTYVDAGSVFGKTGDAEKVLNGGWNYLMETFNSYANPGYGAMLRANDAMGSDVVLNSKYGFRTHNEFSAIYGKGGTNTLSWLLAYRVINDCNGVLDNIDAAEGTQADRNRIKGQALALRGFLYLHLASCYSFAIDKDPDAVCAPIYTQSTDETIAAEGKPASSVSEVYAQSINDLEEALELIPETYVRDAKHKIDNEVVLGILSRACLYARQWEKAKTYSDKLLAKDNYLMTESEYKAGFNSVDNKEWIWGHAQTNDQSNASYQFHYLDTTTKGSYYYSFNVDPYFRDLFEDGDYRKEMLFWATDPGADVESAAYVWMRNSKFRFRDIENQLGDIVLMRVAEIYLINAEAKAHLNDPDAINKLNDLKTARGAKTIHTNLSQQDLLETIWLERRKELWGEGFSLIDIIRNQQTVVRNAYPEGPIDYIYTDENGQTHTLKKKTQGHRFFNFPDKSAFCPNSKYYLYRITDSEELANKNLYKDHPKLSIYTK
# Experiments:
# Assay in all cases: glycan array binding signal (z-score within array); higher = stronger binding
# Details in all cases: glycan notation: IUPAC condensed, linker removed
# [1] = target: Fuc(a1-2)Gal
# How it was run: (§1)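 Columns mapping to the same glycan were averaged after glycan names were converted to IUPAC-condensed notation. The data come from 3228 arrays in the Consortium for Functional Glycomics database, limited to those with an available protein sequence. Binding is reported as a within-array Z-score averaged across arrays of one protein sequence and across linkers.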
# [2] = target: Fuc(a1-2)Gal(b1-3)GalNAc
# How it was run: as §1
# [3] = target: Fuc(a1-2)Gal(b1-3)GalNAc(a1-3)[Fuc(a1-2)]Gal(b1-4)Glc
# How it was run: as §1
# [4] = target: Fuc(a1-2)Gal(b1-3)GalNAc(a1-3)[Fuc(a1-2)]Gal(b1-4)GlcNAc
# How it was run: as §1
# [5] = target: Fuc(a1-2)Gal(b1-3)GalNAc(b1-3)Gal
# How it was run: as §1
# [6] = target: Fuc(a1-2)Gal(b1-3)GalNAc(b1-3)Gal(a1-4)Gal(b1-4)Glc
# How it was run: as §1
# [7] = target: Fuc(a1-2)Gal(b1-3)GalNAc(b1-4)[Neu5Ac(a2-3)]Gal(b1-4)Glc
# How it was run: as §1
# [8] = target: Fuc(a1-2)Gal(b1-3)GlcNAc
# How it was run: as §1
# [9] = target: Fuc(a1-2)Gal(b1-3)GlcNAc(b1-2)Man(a1-3)[Fuc(a1-2)Gal(b1-3)GlcNAc(b1-2)Man(a1-6)]Man(b1-4)GlcNAc(b1-4)GlcNAc
# How it was run: as §1
# [10] = target: Fuc(a1-2)Gal(b1-3)GlcNAc(b1-2)Man(a1-3)[Fuc(a1-2)Gal(b1-3)GlcNAc(b1-2)Man(a1-6)]Man(b1-4)GlcNAc(b1-4)[Fuc(a1-6)]GlcNAc
# How it was run: as §1
# [11] = target: Fuc(a1-2)Gal(b1-3)GlcNAc(b1-3)Gal(b1-4)Glc
# How it was run: as §1
# [12] = target: Fuc(a1-2)Gal(b1-3)GlcNAc(b1-3)GalNAc
# How it was run: as §1
# [13] = target: Fuc(a1-2)Gal(b1-3)GlcNAc(b1-3)[Fuc(a1-2)Gal(b1-3)GlcNAc(b1-6)]GalNAc
# How it was run: as §1
# [14] = target: Fuc(a1-2)Gal(b1-3)GlcNAc(b1-3)[Gal(b1-4)GlcNAc(b1-6)]Gal(b1-4)Glc
# How it was run: as §1
# [15] = target: Fuc(a1-2)Gal(b1-3)GlcNAc(b1-3)[Neu5Ac(a2-6)Gal(b1-4)GlcNAc(b1-6)]Gal(b1-4)Glc
# How it was run: as §1
# [16] = target: Fuc(a1-2)Gal(b1-3)GlcNAc6S
# How it was run: as §1
# [17] = target: Fuc(a1-2)Gal(b1-3)[Fuc(a1-4)]GlcNAc
# How it was run: as §1
# [18] = target: Fuc(a1-2)Gal(b1-3)[Fuc(a1-4)]GlcNAc(b1-2)Man(a1-3)[Fuc(a1-2)Gal(b1-3)[Fuc(a1-4)]GlcNAc(b1-2)Man(a1-3)]Man(b1-4)GlcNAc(b1-4)GlcNAc
# How it was run: as §1
# [19] = target: Fuc(a1-2)Gal(b1-3)[Fuc(a1-4)]GlcNAc(b1-2)Man(a1-3)[Fuc(a1-2)Gal(b1-3)[Fuc(a1-4)]GlcNAc(b1-2)Man(a1-6)]Man(b1-4)GlcNAc(b1-4)[Fuc(a1-6)]GlcNAc(b1-4)[Fuc(a1-6)]GlcNAc
# How it was run: as §1
# [20] = target: Fuc(a1-2)Gal(b1-3)[Fuc(a1-4)]GlcNAc(b1-3)[Fuc(a1-3)[Gal(b1-4)]GlcNAc(b1-6)]Gal(b1-4)Glc
# How it was run: as §1
# [21] = target: Fuc(a1-2)Gal(b1-3)[Fuc(a1-4)]GlcNAc(b1-3)[Gal(b1-4)GlcNAc(b1-6)]Gal(b1-4)Glc
# How it was run: as §1
# [22] = target: Fuc(a1-2)Gal(b1-4)Glc
# How it was run: as §1
# [23] = target: Fuc(a1-2)Gal(b1-4)Glc6S
# How it was run: as §1
# [24] = target: Fuc(a1-2)Gal(b1-4)GlcNAc
# How it was run: as §1
# [25] = target: Fuc(a1-2)Gal(b1-4)GlcNAc(b1-2)Man
# How it was run: as §1
# [26] = target: Fuc(a1-2)Gal(b1-4)GlcNAc(b1-2)Man(a1-3)[Fuc(a1-2)Gal(b1-4)GlcNAc(b1-2)Man(a1-6)]Man(b1-4)GlcNAc(b1-4)GlcNAc
# How it was run: as §1
# [27] = target: Fuc(a1-2)Gal(b1-4)GlcNAc(b1-2)Man(a1-3)[Fuc(a1-2)Gal(b1-4)GlcNAc(b1-2)Man(a1-6)]Man(b1-4)GlcNAc(b1-4)[Fuc(a1-6)]GlcNAc
# How it was run: as §1
# [28] = target: Fuc(a1-2)Gal(b1-4)GlcNAc(b1-2)[Fuc(a1-2)Gal(b1-4)GlcNAc(b1-4)]Man(a1-3)[Fuc(a1-2)Gal(b1-4)GlcNAc(b1-2)Man(a1-6)]Man(b1-4)GlcNAc(b1-4)GlcNAc
# How it was run: as §1
# [29] = target: Fuc(a1-2)Gal(b1-4)GlcNAc(b1-3)Gal(b1-4)GlcNAc
# How it was run: as §1
# [30] = target: Fuc(a1-2)Gal(b1-4)GlcNAc(b1-3)Gal(b1-4)GlcNAc(b1-2)Man(a1-3)[Fuc(a1-2)Gal(b1-4)GlcNAc(b1-3)Gal(b1-4)GlcNAc(b1-2)Man(a1-6)]Man(b1-4)GlcNAc(b1-4)GlcNAc
# How it was run: as §1
binder,measurement,setting,value
B1,glycan array binding signal (z-score),[1],-0.342
same,glycan array binding signal (z-score),[2],-0.349
same,glycan array binding signal (z-score),[3],-0.385
same,glycan array binding signal (z-score),[4],-0.284
same,glycan array binding signal (z-score),[5],-0.356
same,glycan array binding signal (z-score),[6],-0.248
same,glycan array binding signal (z-score),[7],-0.301
same,glycan array binding signal (z-score),[8],-0.323
same,glycan array binding signal (z-score),[9],2.86
same,glycan array binding signal (z-score),[10],-0.028
same,glycan array binding signal (z-score),[11],-0.294
same,glycan array binding signal (z-score),[12],-0.387
same,glycan array binding signal (z-score),[13],-0.174
same,glycan array binding signal (z-score),[14],-0.164
same,glycan array binding signal (z-score),[15],-0.287
same,glycan array binding signal (z-score),[16],-0.079
same,glycan array binding signal (z-score),[17],-0.305
same,glycan array binding signal (z-score),[18],-0.201
same,glycan array binding signal (z-score),[19],-0.237
same,glycan array binding signal (z-score),[20],-0.244
same,glycan array binding signal (z-score),[21],-0.358
same,glycan array binding signal (z-score),[22],-0.35
same,glycan array binding signal (z-score),[23],-0.226
same,glycan array binding signal (z-score),[24],-0.342
same,glycan array binding signal (z-score),[25],-0.373
same,glycan array binding signal (z-score),[26],0.969
same,glycan array binding signal (z-score),[27],-0.308
same,glycan array binding signal (z-score),[28],-0.126
same,glycan array binding signal (z-score),[29],-0.378
same,glycan array binding signal (z-score),[30],-0.179
